Laboratory results published in US20220267464A1 (Hoffmann-La Roche, published 2022).

T1: human CEACAM5 (carcinoembryonic antigen, CEA) on cells (human, UniProt P06731 35-685)
T1 sequence: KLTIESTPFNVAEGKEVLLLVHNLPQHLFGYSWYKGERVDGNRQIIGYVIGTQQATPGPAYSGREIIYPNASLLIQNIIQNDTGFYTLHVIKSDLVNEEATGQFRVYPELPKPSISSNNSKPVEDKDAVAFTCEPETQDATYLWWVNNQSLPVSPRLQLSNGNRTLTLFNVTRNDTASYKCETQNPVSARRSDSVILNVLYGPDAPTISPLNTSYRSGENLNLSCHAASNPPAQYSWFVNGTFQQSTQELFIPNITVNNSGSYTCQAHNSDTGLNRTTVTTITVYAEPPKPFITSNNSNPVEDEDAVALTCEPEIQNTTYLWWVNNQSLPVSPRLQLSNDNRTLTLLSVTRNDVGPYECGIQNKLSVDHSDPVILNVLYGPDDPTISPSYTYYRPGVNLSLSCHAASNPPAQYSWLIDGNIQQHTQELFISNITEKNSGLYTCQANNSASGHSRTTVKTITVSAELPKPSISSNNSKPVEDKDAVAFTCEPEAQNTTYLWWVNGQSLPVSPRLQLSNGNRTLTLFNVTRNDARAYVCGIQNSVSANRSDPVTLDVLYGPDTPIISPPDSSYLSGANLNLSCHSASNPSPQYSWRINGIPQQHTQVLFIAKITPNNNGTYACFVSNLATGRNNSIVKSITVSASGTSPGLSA

T2: hu N(A2-B2)A-avi-His (human, biotin on the avi tag where used biotinylated)
T2 construct: chimeric soluble antigen; also called hu N(A2-B2)A-avi-His B; human CEA (A2 domain)
T2 chain: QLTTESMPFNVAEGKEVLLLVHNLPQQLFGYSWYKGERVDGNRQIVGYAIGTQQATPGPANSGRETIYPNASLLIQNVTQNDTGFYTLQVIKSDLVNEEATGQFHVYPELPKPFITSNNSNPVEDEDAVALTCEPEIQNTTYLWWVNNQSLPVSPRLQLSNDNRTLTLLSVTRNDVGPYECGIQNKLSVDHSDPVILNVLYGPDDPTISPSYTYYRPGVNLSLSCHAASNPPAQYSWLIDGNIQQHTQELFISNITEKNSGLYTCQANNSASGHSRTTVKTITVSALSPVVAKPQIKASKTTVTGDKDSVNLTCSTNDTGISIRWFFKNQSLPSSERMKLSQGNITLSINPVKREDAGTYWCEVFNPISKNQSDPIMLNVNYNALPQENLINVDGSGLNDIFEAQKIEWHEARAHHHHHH

B1: CEA(A5H1EL1D)-4-1BBL (Fc fusion)
chain 1: REGPELSPDDPAGLLDLRQGMFAQLVAQNVLLIDGPLSWYSDPGLAGVSLTGGLSYKEDTKELVVAKAGVYYVFFQLELRRVVAGEGSGSVSLALHLQPLRSAAGAAALALTVDLPPASSEARNSAFGFQGRLLHLSAGQRLGVHLHTEARARHAWQLTQGATVLGLFRVTPEIPAGLGGGGSGGGGSREGPELSPDDPAGLLDLRQGMFAQLVAQNVLLIDGPLSWYSDPGLAGVSLTGGLSYKEDTKELVVAKAGVYYVFFQLELRRVVAGEGSGSVSLALHLQPLRSAAGAAALALTVDLPPASSEARNSAFGFQGRLLHLSAGQRLGVHLHTEARARHAWQLTQGATVLGLFRVTPEIPAGLGGGGSGGGGSRTVAAPSVFIFPPSDRKLKSGTASVVCLLNNFYPREAKVQWKVDNALQSGNSQESVTEQDSKDSTYSLSSTLTLSKADYEKHKVYACEVTHQGLSSPVTKSFNRGE[human IgG1 Fc with changes not spelt out]
chain 2: REGPELSPDDPAGLLDLRQGMFAQLVAQNVLLIDGPLSWYSDPGLAGVSLTGGLSYKEDTKELVVAKAGVYYVFFQLELRRVVAGEGSGSVSLALHLQPLRSAAGAAALALTVDLPPASSEARNSAFGFQGRLLHLSAGQRLGVHLHTEARARHAWQLTQGATVLGLFRVTPEIPAGLGGGGSGGGGSASTKGPSVFPLAPSSKSTSGGTAALGCLVEDYFPEPVTVSWNSGALTSGVHTFPAVLQSSGLYSLSSVVTVPSSSLGTQTYICNVNHKPSNTKVDEKVEPKSC
heavy: EVQLLESGGGLVQPGGSLRLSCAASGFTFTDYYMNWVRQAPGKGLEWLGFIGNKANAYTTEYSASVKGRFTISRDKSKNTLYLQMNSLRAEDTATYYCTRDRGLRFYFDYWGQGTTVTVSSASTKGPSVFPLAPSSKSTSGGTAALGCLVKDYFPEPVTVSWNSGALTSGVHTFPAVLQSSGLYSLSSVVTVPSSSLGTQTYICNVNHKPSNTKVDKKVEPKSCDKTHTCPPCPAPEAAGGPSVFLFPPKPKDTLMISRTPEVTCVVVDVSHEDPEVKFNWYVDGVEVHNAKTKPREEQYNSTYRVVSVLTVLHQDWLNGKEYKCKVSNKALGAPIEKTISKAKGQPREPQVCTLPPSRDELTKNQVSLSCAVKGFYPSDIAVEWESNGQPENNYKTTPPVLDSDGSFFLVSKLTVDKSRWQQGNVFSCSVMHEALHNHYTQKSLSLSP
light: EIVLTQSPATLSLSPGERATLSCRASSSVTYIHWYQQKPGQAPRSWIYATSNLASGIPARFSGSGSGTDFTLTISSLEPEDFAVYYCQHWSSKPPTFGQGTKLEIKRTVAAPSVFIFPPSDEQLKSGTASVVCLLNNFYPREAKVQWKVDNALQSGNSQESVTEQDSKDSTYSLSSTLTLSKADYEKHKVYACEVTHQGLSSPVTKSFNRGEC
notes: split trimeric 4-1BBL Fc (kih) P329G LALA with one anti-CEA Fab
B2: CEA(P001.177)-4-1BBL (Fc fusion)
chain 1: REGPELSPDDPAGLLDLRQGMFAQLVAQNVLLIDGPLSWYSDPGLAGVSLTGGLSYKEDTKELVVAKAGVYYVFFQLELRRVVAGEGSGSVSLALHLQPLRSAAGAAALALTVDLPPASSEARNSAFGFQGRLLHLSAGQRLGVHLHTEARARHAWQLTQGATVLGLFRVTPEIPAGLGGGGSGGGGSREGPELSPDDPAGLLDLRQGMFAQLVAQNVLLIDGPLSWYSDPGLAGVSLTGGLSYKEDTKELVVAKAGVYYVFFQLELRRVVAGEGSGSVSLALHLQPLRSAAGAAALALTVDLPPASSEARNSAFGFQGRLLHLSAGQRLGVHLHTEARARHAWQLTQGATVLGLFRVTPEIPAGLGGGGSGGGGSRTVAAPSVFIFPPSDRKLKSGTASVVCLLNNFYPREAKVQWKVDNALQSGNSQESVTEQDSKDSTYSLSSTLTLSKADYEKHKVYACEVTHQGLSSPVTKSFNRGE[human IgG1 Fc with changes not spelt out]
chain 2: B1 chain 2
heavy: B1 heavy with T28Y, G52S
light: B1 light
notes: split trimeric 4-1BBL Fc (kih) P329G LALA with one anti-CEA Fab; also called CEA (aff. mat. A5H1EL1D P001.177)-4-1BBL; printed once as P001.117
B3: CEA(P005.102)-4-1BBL (Fc fusion)
chain 1: REGPELSPDDPAGLLDLRQGMFAQLVAQNVLLIDGPLSWYSDPGLAGVSLTGGLSYKEDTKELVVAKAGVYYVFFQLELRRVVAGEGSGSVSLALHLQPLRSAAGAAALALTVDLPPASSEARNSAFGFQGRLLHLSAGQRLGVHLHTEARARHAWQLTQGATVLGLFRVTPEIPAGLGGGGSGGGGSREGPELSPDDPAGLLDLRQGMFAQLVAQNVLLIDGPLSWYSDPGLAGVSLTGGLSYKEDTKELVVAKAGVYYVFFQLELRRVVAGEGSGSVSLALHLQPLRSAAGAAALALTVDLPPASSEARNSAFGFQGRLLHLSAGQRLGVHLHTEARARHAWQLTQGATVLGLFRVTPEIPAGLGGGGSGGGGSRTVAAPSVFIFPPSDRKLKSGTASVVCLLNNFYPREAKVQWKVDNALQSGNSQESVTEQDSKDSTYSLSSTLTLSKADYEKHKVYACEVTHQGLSSPVTKSFNRGE[human IgG1 Fc with changes not spelt out]
chain 2: B1 chain 2
heavy: B1 heavy with L104I, Y107Q
light: B1 light with P94S
notes: split trimeric 4-1BBL Fc (kih) P329G LALA with one anti-CEA Fab; also called CEA (aff. mat. A5H1EL1D P005.102)-4-1BBL

What was measured:
[1] = molecular target: T1, human CEACAM5 (carcinoembryonic …); assay: cell-based or functional assay
[2] = molecular target: T3, cynomolgus monkey CEACAM5 on CHO-k1-cynoCEACAM5 clone 8 cells (cynomolgus monkey); assay: cell-based or functional assay
[3] = molecular target: T1, human CEACAM5 (carcinoembryonic …); assay: flow cytometry, CHO-k1-huCEACAM5 clone 11; set-up: unit not given beside the values
[4] = molecular target: T1, human CEACAM5 (carcinoembryonic …); assay: flow cytometry, CHO-k1-huCEACAM5 clone 12
[5] = molecular target: T1, human CEACAM5 (carcinoembryonic …); assay: flow cytometry, CHO-k1-huCEACAM5 clone 11; set-up: unit not given beside the values; remark: listed apart in the source
[6] = molecular target: T1, human CEACAM5 (carcinoembryonic …); assay: flow cytometry, CHO-k1-huCEACAM5 clone 12; remark: listed apart in the source
[7] = molecular target: T1, human CEACAM5 (carcinoembryonic …); assay: flow cytometry, CHO-k1-huCEACAM5 clone 13; set-up: unit not given beside the values
[8] = molecular target: T1, human CEACAM5 (carcinoembryonic …); assay: flow cytometry, CHO-k1-huCEACAM5 clone 17; set-up: unit not given beside the values
[9] = molecular target: T1, human CEACAM5 (carcinoembryonic …); assay: flow cytometry, CHO-k1-huCEACAM5 clone 12; set-up: unit not given beside the values
[10] = molecular target: T1, human CEACAM5 (carcinoembryonic …); assay: flow cytometry, CHO-k1-huCEACAM5 clone 12; set-up: unit not given beside the values; remark: listed apart in the source
[11] = molecular target: T1, human CEACAM5 (carcinoembryonic …); assay: flow cytometry, CHO-k1-huCEACAM5 clone 11
[12] = molecular target: T3, cynomolgus monkey CEACAM5 on …; assay: flow cytometry, CHO-k1-cynoCEACAM5 clone 8; set-up: unit not given beside the values
[13] = molecular target: T3, cynomolgus monkey CEACAM5 on …; assay: flow cytometry, CHO-k1-cynoCEACAM5 clone 8; set-up: unit not given beside the values; remark: listed apart in the source
[14] = molecular target: T1, human CEACAM5 (carcinoembryonic …); assay: cell-based or functional assay; set-up: AUC of activation curve, Jurkat-hu4-1BB-NFκB-luc2, no CEA+ cells / AUC of activation curve, Jurkat-hu4-1BB-NFκB-luc2 with CHO-k1-cyno CEACAM5 clone 8: unit not given beside the values
[15] = molecular target: T3, cynomolgus monkey CEACAM5 on …; assay: cell-based or functional assay; set-up: AUC of activation curve, Jurkat-hu4-1BB-NFκB-luc2, no CEA+ cells / AUC of activation curve, Jurkat-hu4-1BB-NFκB-luc2 with CHO-k1-cyno CEACAM5 clone 8: unit not given beside the values
[16] = molecular target: human 4-1BB on Jurkat-hu4-1BB-NFκB-luc2 reporter cells (human, UniProt Q07011 24-255); assay: cell-based or functional assay; set-up: AUC of activation curve, Jurkat-hu4-1BB-NFκB-luc2, no CEA+ cells / AUC of activation curve, Jurkat-hu4-1BB-NFκB-luc2 with CHO-k1-cyno CEACAM5 clone 8: unit not given beside the values
Sequence of UniProt Q07011 (Q07011 24-255 limits assumed): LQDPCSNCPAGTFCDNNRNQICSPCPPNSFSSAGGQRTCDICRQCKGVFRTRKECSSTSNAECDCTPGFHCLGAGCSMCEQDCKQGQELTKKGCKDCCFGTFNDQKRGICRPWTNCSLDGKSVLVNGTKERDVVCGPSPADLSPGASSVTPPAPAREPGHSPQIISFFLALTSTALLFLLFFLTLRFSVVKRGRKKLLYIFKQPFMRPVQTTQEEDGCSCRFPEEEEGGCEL

[17] = molecular target: T1, human CEACAM5 (carcinoembryonic …); assay: flow cytometry, CHO-k1-huCEACAM5 clone 11; remark: listed apart in the source
[18] = molecular target: T1, human CEACAM5 (carcinoembryonic …); assay: flow cytometry, CHO-k1-huCEACAM5 clone 17
[19] = molecular target: T2, hu N(A2-B2)A-avi-His; assay: SPR (Biacore T200), huN(A2-B2)A immobilised on a CM5 chip, construct injected as analyte 1
Method: All SPR experiments were performed on a Biacore T200 at 25° C. with HBS-EP as running buffer (0.01 M HEPES pH 7.4, 0.15 M NaCl, 3 mM EDTA, 0.005% Surfactant P20, Biacore, Freiburg/Germany).
Bulk refractive index differences were corrected for by subtracting the response obtained in a reference flow cell, where no protein was immobilized.

[20] = molecular target: T3, cynomolgus monkey CEACAM5 on …; assay: flow cytometry, CHO-k1-cynoCEACAM5 clone 8

Binder	EC50, NFκB-luciferase in Jurkat-hu4-1BB-NFκB-luc2 with CHO-k1-human CEACAM5 clone 11 [1] [nM]	EC50, NFκB-luciferase in Jurkat-hu4-1BB-NFκB-luc2 with CHO-k1-human CEACAM5 clone 12 [1] [nM]	EC50, NFκB-luciferase in Jurkat-hu4-1BB-NFκB-luc2 with CHO-k1-cyno CEACAM5 clone 8 [2] [nM]	AUC [3]	EC50 [6] [nM]	AUC [9]	EC50 [11] [nM]	AUC [13]	AUC of activation curve, Jurkat-hu4-1BB-NFκB-luc2 with CHO-k1-human CEACAM5 clone 11 [14]	AUC of activation curve, Jurkat-hu4-1BB-NFκB-luc2 with CHO-k1-human CEACAM5 clone 12 [14]	AUC of activation curve, Jurkat-hu4-1BB-NFκB-luc2 with CHO-k1-cyno CEACAM5 clone 8 [15]	AUC of activation curve, Jurkat-hu4-1BB-NFκB-luc2, no CEA+ cells [16]	binding result [19]	further results
B1	0.16	0.09	0.53	1530	148	4420	61.7	368	131000	137000	61700	2560	binds	EC50 [4]: 691 nM; AUC [5]: 8760; AUC [7]: 48500; AUC [8]: 9080; AUC [10]: 30500; AUC [12]: 6190; EC50 [17]: 296 nM; EC50 [18]: 190 nM
B2	0.05	0.03	0.13	3630	44	8350	33.7	164	174000	171000	72100	2870	binds	
B3	0.1	0.08	0.12	3180	43.4	8990	40.9	2770	152000	131000	88800	2510	binds	EC50 [20]: 79.5 nM

Where a chain is given by its changes, count along the chain named. Names may count otherwise. Read-outs that look alike come from different tables or passages of the source.
